Data from paper PMC4336329 (PLoS ONE, 2015).
Hit rate of the full screen: of about 310,000 compounds, about 14,000 (4.5%) showed an effect of 50% or more. The effect is printed as a negative number. This is one part of the list.

The molecules below were run against human ether-à-go-go-related gene (hERG) potassium channel (human, UniProt Q12809) (assay: primary screen, population patch clamp on CHO cells stably expressing hERG).
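Further: peak tail current of the secondary pulse compared with the same well before compound.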

Sequence of human ether-à-go-go-related gene (hERG) potassium channel (Q12809 whole entry, looked up): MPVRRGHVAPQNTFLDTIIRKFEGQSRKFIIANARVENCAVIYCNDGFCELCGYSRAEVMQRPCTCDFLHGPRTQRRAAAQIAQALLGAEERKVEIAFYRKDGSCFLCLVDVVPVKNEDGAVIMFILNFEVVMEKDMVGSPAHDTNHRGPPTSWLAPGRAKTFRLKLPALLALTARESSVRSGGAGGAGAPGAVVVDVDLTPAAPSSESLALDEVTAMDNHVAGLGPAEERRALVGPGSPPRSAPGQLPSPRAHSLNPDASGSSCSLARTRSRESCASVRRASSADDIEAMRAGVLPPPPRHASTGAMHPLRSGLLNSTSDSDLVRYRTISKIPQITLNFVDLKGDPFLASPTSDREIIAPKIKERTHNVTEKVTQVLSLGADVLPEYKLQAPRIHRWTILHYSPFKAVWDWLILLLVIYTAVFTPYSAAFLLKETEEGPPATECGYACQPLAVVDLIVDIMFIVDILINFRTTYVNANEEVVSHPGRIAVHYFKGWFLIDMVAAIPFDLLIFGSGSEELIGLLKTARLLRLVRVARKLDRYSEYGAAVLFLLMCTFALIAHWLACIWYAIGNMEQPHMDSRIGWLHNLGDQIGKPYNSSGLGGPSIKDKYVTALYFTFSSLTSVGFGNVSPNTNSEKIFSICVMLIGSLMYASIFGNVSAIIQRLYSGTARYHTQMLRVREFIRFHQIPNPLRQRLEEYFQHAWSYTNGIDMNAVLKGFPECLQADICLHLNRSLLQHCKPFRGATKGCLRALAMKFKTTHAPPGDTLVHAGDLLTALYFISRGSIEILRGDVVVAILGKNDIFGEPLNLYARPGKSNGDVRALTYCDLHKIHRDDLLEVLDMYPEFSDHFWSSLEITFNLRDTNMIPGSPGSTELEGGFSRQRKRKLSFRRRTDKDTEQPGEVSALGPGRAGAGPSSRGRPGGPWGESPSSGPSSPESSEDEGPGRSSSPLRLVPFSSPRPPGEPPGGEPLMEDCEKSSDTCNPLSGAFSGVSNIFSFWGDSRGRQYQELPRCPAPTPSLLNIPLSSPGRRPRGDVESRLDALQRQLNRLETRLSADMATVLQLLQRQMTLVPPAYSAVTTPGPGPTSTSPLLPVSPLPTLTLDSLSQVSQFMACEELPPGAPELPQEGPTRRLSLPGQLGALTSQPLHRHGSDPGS

Compound	hERG current change (%, negative = inhibition) at 10uM
CCOC(=O)C1C(c2cc(OC)c(OC)c(OC)c2)NC(=S)NC1(O)C(F)(F)F (stereo not shown)	-0.79%
Cc1cc(C)c(-c2csc(NC(=O)C3=NN(c4ccccc4)C(=O)CC3)n2)c(C)c1	-10.4%
CC(C)(C)NC(=O)c1cccc2c1-c1ccccc1C2=O	10.7%
CCC(C)N1CC(=O)N2Cc3[nH]c4ccccc4c3C[C@H]2C1=O (stereo partly shown)	15%
CC(C)C(c1nnnn1Cc1ccccc1)N1CCN(Cc2ccco2)CC1.Cl (stereo not shown)	-32.1%
Cc1c(/N=C/c2ccco2)n(Cc2ccccc2)c2ccccc12	10.9%
CCOc1ccc(NC(=O)CSc2nc(C)cc(C)n2)cc1	7.68%
CCOC(=O)C1=C(N)Oc2c(oc(CO)cc2=O)C1c1ccc(F)cc1 (stereo not shown)	-14.6%
CC(C)Cc1nc2sc3c(NCc4ccco4)ncnc3c2c2c1COC(C)(C)C2	-5.32%
O=C(NCCN1CCOCC1)c1ccc2c(c1)N(Cc1ccc(Cl)cc1)C(=O)CS2	-19.7%
CCOC(=O)CSc1nnc2n1C(C)(C)Cc1ccccc1-2	-4.66%
Cc1ccc2nc3c(cc(C(=O)NCc4ccco4)c(=N)n3C3CCCC3)c(=O)n2c1	-75.8%
COc1ccccc1NC(=O)COc1ccccc1C(=O)c1cnn(-c2ccccc2)c1	-32.7%
Cc1cccc(C)c1Nc1nnc(SCc2nc3ccccc3c(=O)[nH]2)s1	-2.6%
CCc1c(C(C)=O)oc2ccc3c(C)cc(=O)oc3c12	2.57%
Cc1ccc(/C=c2\sc3nc(-c4ccccc4Br)nn3c2=O)o1	-7.13%
O=C(CCCl)Nc1nc2c(s1)CCc1ccccc1-2	15.9%
CCCCNC(=O)Nc1ccc(C(O)(C(=O)OCC)C(F)(F)F)cc1 (stereo not shown)	-2.09%
COc1ccc(COC(=O)C2=C(C)NC(=O)NC2c2cc(Br)c(O)c(OC)c2)cc1 (stereo not shown)	1.73%
Cc1ccccc1CSc1[nH]c(=O)ncc1C	12.3%
O=C(NCc1ccc2c(c1)OCO2)C1CC(c2ccc(Cl)cc2)=NO1 (stereo not shown)	-3.96%
COC(=O)c1ccc(C(=O)OC)c(NC(=O)CN(C)Cc2ccccc2)c1	-19.8%

Compound	hERG current change (%, negative = inhibition) at 10uM
CCOC(CNC(=O)c1ccc2c(c1)nc(C)n2-c1cccc(F)c1)OCC	-1.42%
Nc1ccc(O)c2c(=O)cc(-c3ccccc3Cl)oc12	9.05%
Cc1ccc(NC(=O)N(Cc2ccc3c(c2)OCO3)Cc2cc3cc4c(cc3[nH]c2=O)OCCO4)cc1	15.5%
O=C(O)CCN1C(=O)/C(=C\c2ccncc2)SC1=S	17.4%
COc1ccc(CC(NC(C)=O)C(=O)NC2CCN(C(=O)c3ccncc3)CC2)cc1OC (stereo not shown)	6.44%
Cc1cc(OCC(=O)NC(C)C)cc(C)c1Br	-4.16%
Cc1cc(C(=O)COc2ccc(-c3nnco3)cc2)c(C)n1Cc1ccccc1	-8.18%
COc1c(CC=C(C)C)cc(C2CC(=O)c3c(O)cc(O)cc3O2)cc1CC=C(C)C (stereo not shown)	3.16%
COc1ccc(/C=N/NC(=O)c2cc(-c3ccc(C)cc3C)nc3ccccc23)cc1COC(C)=O	20%
Cc1nnc(NC(=O)CSc2nc(C3CCCCC3)nc3ccccc23)s1	17.3%
Cc1cc(=O)[nH]c(Nc2ccc(Cl)cc2)n1	15%
COc1cc(/C=C2\SC(=S)N(C(C(=O)O)c3ccccc3)C2=O)ccc1O (stereo not shown)	-6.14%
Cc1ccc(NC2=NC3(CCCCC3)N=C(N)N2)c(C)c1	4.38%
Cc1ccc(F)cc1NC(=O)C1C2CCC(O2)C1C(=O)O (stereo not shown)	15.5%
Cc1ccc(C)c(-n2c(SCC(=O)O)nc3sc4c(c3c2=O)CCCC4)c1	19.1%
Cc1cccc(NC2=CC(=O)OC(C)C2)c1 (stereo not shown)	5.47%
COC(=O)C1=CN(C2CCCCC2)C=C(C(=O)OC)C1c1ccc2c(c1)OCO2	0.434%
Cc1ccc(CNC(=O)CNC(=S)N(Cc2ccccc2)Cc2cccnc2)cc1	-19.8%
O=C1CN(C(=O)COc2ccccc2)c2ccccc2N1	9.67%
COC(=O)c1ccc(N2C(=O)c3ccc(OC)c(OC)c3C2=O)cc1	-8.57%
COc1cccc(C(=O)Nc2ccc3c(c2)C(=O)N(CCC(=O)O)C3=O)c1	5.74%
O=[N+]([O-])c1ccc(N2CCN(c3ccc(O)cc3)CC2)cn1	-52.8%

Compound	hERG current change (%, negative = inhibition) at 10uM
COC(=O)c1ccc(-n2ccnc2)cc1	22.3%
COC(=O)c1cc(S(=O)(=O)NCc2ccccc2OC)cn1C	4.66%
CC(Sc1nc2ccccc2[nH]1)C(=O)O (stereo not shown)	5.82%
O=[N+]([O-])c1ccc(S(=O)(=O)Nc2nnc(C3CCCCC3)s2)cc1	0.946%
CC(C)n1c(COc2ccccc2)nc2ccccc21	9.63%
Cc1ccc2nc(SCC(=O)Nc3cc(C)on3)c(C)cc2c1	10.7%
O=C(Cn1cnc2ccccc2c1=O)NCC(=O)N1CCOCC1	4.05%
CCCCCn1c(=NC(C)=O)c(C#N)cc2c(=O)n3ccccc3nc21	-43%
COc1ccc(S(=O)(=O)N(C)CC(=O)NCc2ccco2)cc1OC	15.8%
CCCn1c(C(C)Nc2nc(-c3ccc(C)cc3)cs2)nc2cc(Cl)c(N3CCCCC3)cc21 (stereo not shown)	21.8%
CCC(C)(C)C1CCC2(CC1)NC(=S)N(c1ccccc1)N2 (stereo not shown)	19.4%
COC(=O)c1ccc2c(=O)n(CCN3CCOCC3)c(SCC(=O)Nc3ccccc3Cl)nc2c1	-33.4%
COc1cccc(-c2nc(CS(=O)(=O)CC(=O)NCCCN3CC(C)CC(C)C3)c(C)o2)c1 (stereo not shown)	-35.2%
COc1ccc(C(=O)NCCN2CCN(C(=O)c3ccc(OC)cc3)CC2)cc1	-75.2%
CC(C)(C)NNC(=S)Nc1cccc(F)c1	10.8%
CCOc1ccccc1NC(=O)Cn1cnc2c(nnn2-c2cccc(OC)c2)c1=O	4.03%
CCNC(=O)CC1C(=O)N(c2ccc(C)cc2)C(=O)N1CCC(C)C (stereo not shown)	-2.19%
CCN(CC)N=Nc1ccc(S(=O)(=O)[N-]c2nc(C)cc(C)n2)cc1.[K+]	-17.2%
Cc1cc(=O)oc2cc(OC(C)C(=O)NCCCN3CCCC3=O)c(Cl)cc12 (stereo not shown)	2.72%
CCn1nc(NC(=O)c2ccccn2)c2cc3cccc(C)c3nc21	-2.45%
Cc1cc(OC(C)C(=O)NCCN2CCOCC2)c2c(C)c(C)c(=O)oc2c1 (stereo not shown)	9.89%
O=C(CCNS(=O)(=O)c1ccc(Cl)cc1)N1CCCC1	17.1%

Compound	hERG current change (%, negative = inhibition) at 10uM
COc1ccc(C(=O)NCCS(=O)(=O)N(C)Cc2ccccc2)cc1	0.987%
Cc1cccc(CC2CC(=O)N(c3ncccn3)C2=O)c1 (stereo not shown)	16%
Cc1sc2nc(CN3CCC(C)CC3)nc(Cl)c2c1C	-17.8%
Cc1cccc(CC(=O)N2CCN=C2SCc2ccc([N+](=O)[O-])cc2)c1	-11.8%
CNC(=O)CN1C(=O)c2cccc3cccc1c23	10.3%
Cc1nn(-c2cc(C(F)(F)F)ccc2Cl)c2nc(C(Cl)(Cl)Cl)[nH]c(=O)c12	4.05%
COc1ccc(NC(=O)CN2C(=O)CSc3ncccc32)cc1	-2.9%
O=C(NCCCn1ccnc1)c1cc(-c2cccc(O)c2)on1	-11.9%
CN1C(=O)/C(=N/OC(=O)c2ccccc2)c2ccccc21	-9.6%
CC(C)n1c(SC2C(=O)CC(C)(C)CC2=O)nc2c1c(=O)n(C)c(=O)n2C	21.5%
CCCCN(CC)Cc1ccc(CNC(=S)Nc2ccc(C)cc2Cl)o1	-32.1%
CCCC1(c2ccccc2)NC(=O)N(CC(=O)Nc2cc(S(=O)(=O)N3CCOCC3)ccc2Cl)C1=O (stereo not shown)	-22.6%
Cc1cc(NC(=O)CSc2nc3c(c(=O)n2-c2ccccc2)SC(C)C3)no1 (stereo not shown)	-17.5%
COc1ccc(CN2CCN(Cc3ccccc3C(F)(F)F)CC2)c(OC)c1.O=C(O)C(=O)O	-74.2%
CC1=CC(c2ccccc2)n2nc(N)nc2N1 (stereo not shown)	1.8%
CCOC(=O)c1nc2ccccc2c(=O)[nH]1	17.6%
COc1cccc(C(c2c(N)[nH]c(=S)[nH]c2=O)c2c(N)[nH]c(=S)[nH]c2=O)c1	22.6%
CCCc1cc(C(=O)Nc2cccc(C(C)=O)c2)no1	4.05%
CN(CC(=O)N1CCN(c2ccccn2)CC1)S(=O)(=O)c1ccc(Br)cc1	-54.8%
CC(=O)c1ccc(S(=O)(=O)Nc2ccc(C(=O)NCC(c3ccccc3)N(C)C)cc2)cc1 (stereo not shown)	8.62%
O=C(Nc1ccccc1N1CCCC1)C1CCN(C(=O)c2ccc(Cl)cc2)CC1	-59.8%
O=C(/C=C/c1ccc(Cl)cc1)N(Cc1ccccc1)C1CCS(=O)(=O)C1 (stereo not shown)	-75%
